Values marked as one replicate rest on one cluster of the flow cell; about a third of the high ones do not repeat.
System: ATP
Assay: switch fluorescence ratio, 500 uM ATP over buffer (Cy3 cluster intensity, sum of 5 cycles each) (fold (ratio)); higher = stronger signal-on switching upon ATP binding; sequences stand for … in TCGTCGGCAGCGTCAGATGTGTATAAGAGACAGTTTTTTTTTTTTTTTTTTTTTTTTT…TC
Conditions: aptamer strand: ATP DNA aptamer (quencher-CACCTGGGGGAGTATTGCGGAGGAAGG + anchor), 100 nM annealed; ATP concentration: 500 uM; one replicate
In short: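 Per cluster, summed Cy3 intensity from the target cycles was divided by that from the buffer cycles to give the fluorescence ratio, then averaged per switch-domain sequence. Clusters outside 100-1000 RFU were excluded. The Cy3-labelled switching-strand clusters, on a modified Illumina MiSeq flow-cell, were annealed to 100 nM quencher-labelled ATP aptamer and imaged in selection buffer, then after 15 min with 500 uM ATP at 22 °C, for five cycles with NaOH stripping and re-annealing between them.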
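Also: ATP exposure 15 min at 22 °C before imaging.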

Sequence | switch fluorescence ratio
CCTTACTCAT | 1.35
ACAATTCGTA | 1.02
GCCTGTGATT | 0.992
TGGTGTCTGG | 1
GCGGCGACAT | 1.57
ATATGGGCGA | 0.966
CTAGGCGGCC | 0.971
TTCTGAACTG | 0.991
CAAAGCTCGT | 0.974
CGGCCCTTGC | 1.06
GATAAAAGA | 0.971
ATAGGAATTA | 0.99
TGATACGCTT | 1.09
TATTGGGCAC | 1
AAAGATATTA | 1.04
GGACTTGACT | 1.03
GAAGTCACGG | 1.1
CCGCTGAAA | 1.05
CAACGGGTAG | 0.992
GGAAACGGGA | 1.06
TAAGGTATTG | 0.997
CTCAGACATG | 0.981

Sequence | switch fluorescence ratio
ACGTGAGTAC | 1.03
CATACGGGTT | 0.985
GTTGAGCTCT | 0.981
ACTGTGGTGG | 1.01
CTCAGGAGTG | 1.01
TGCCTTGGGA | 0.969
ATACCGGAAA | 1.04
CCGTCCTGCT | 1.03
GGTAGTATTG | 0.938
TCAGAAGGAT | 0.986
CAGTGCGCAC | 0.97
TTCTGAGACT | 1.02
GTGTTAGATG | 0.995
CTGAGCATCC | 1.5
CCGATATTGT | 1.01
GGGGAATGTC | 1.08
GCCACGATAA | 1.13
CACGTTGCCG | 1.04
GTTACGACCG | 1.2
CGACAGACCG | 1.05
AATCTATTTT | 1.02
CAAAAGAAC | 1.12

Sequence | switch fluorescence ratio
AGACGGACTG | 1.03
AATGCGCCGA | 1.04
TATACAGTAT | 1.08
GTGCTCAAAA | 0.999
TGGAAGGTA | 0.994
GAAGGAAGT | 1.01
CGGATGTTTG | 1.03
ACAGGAGCAG | 1.02
TTTTCGCGTC | 0.991
TATCTGCCGT | 1.04
CCGGTTGCAG | 1.33
CTATTATACT | 1.02
TGGTAGCTCG | 0.938
AAATCAAATG | 0.91
AGGAGCGAGA | 1.03
ACGCCAACCG | 1.12
CAGAGAGAGA | 1.03
TTTTAGTCCG | 1.03
ATCTGCACTT | 1.1
GGGTCTAGTT | 1.03
TGTTACCAAT | 0.97
AACTACGGTC | 1.14

Sequence | switch fluorescence ratio
GCGGTATTGT | 0.986
AAGCGAATGA | 1.05
GCTTGTTAAG | 1.01
AACGGTGGTA | 0.991
AAGTCTATCG | 1.03
GGTACACTCA | 1.03
AACTGTTGTT | 1
TGATCGGTCG | 0.98
AGATATTTGA | 0.971
TGAGGATTTA | 0.967
TAGCTATTTT | 1.16
CCAGGAAAAG | 1.02
CTGGCTAGAC | 1.73
CTCTACCCTA | 1.05
CGTCGACCCG | 0.992
CGTTTGGACT | 0.978
TGGAAGCCAA | 1
ATTCATCCTG | 0.984
ACAGGTACGC | 1.12

From the supplement of paper PMC10126150
